Assay results from PubChem BioAssay AID686970 (National Center for Advancing Translational Sciences (NCATS), 2013).
About 6,000 (1.7%) of roughly 360,000 compounds were called active. About 8% were inconclusive and are not listed. The call rests on the fitted dose curve; in most records, active means well fitted cell-killing curve with a large enough effect; inconclusive means small, poorly fitted or top-dose-only effect, or effect the other way; inactive means flat fitted curve, though single readings scatter. Only a part is listed here, and it is no random draw.

Experiment: qHTS for induction of synthetic lethality in tumor cells producing 2HG: qHTS for the HT-1080-NT fibrosarcoma cell line;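 further: NT is the 2HG producing partner of a matched IDH1 knockdown line; nearly all actives have a fitted effect of over 55% in size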;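 on activity, negative = less viability: 0% = DMSO-treated cells and -100% = media-only wells without cells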
Conditions: HT-1080-NT fibrosarcoma viability, CellTiter-Glo ATP luminescence, 48 h; series mostly up to 46.1 µM; activity, negative = less viability: at the top concentration
Method in brief: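 A 48-hour cytotoxicity screen used HT-1080-NT cells plated 2 hours before compound delivery. ATP-based CellTiter-Glo luminescence measured viability, normalized to DMSO and no-cell controls.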
Potency means the concentration at half of the fitted maximal effect.

Row | SMILES | activity, negative = less viability | Potency
1 | C/C=C(/C)C(=O)OC1c2c(ccc3ccc(=O)oc23)OC(C)(C)C1OC(=O)/C(C)=C\C (configuration not stated) | inactive: -18.5% | –
2 | O=C(O)CNC(=O)/C(=C/c1cccc([N+](=O)[O-])c1)NC(=O)c1ccco1 | inactive: 18% | –
3 | CC(C)CC(=O)C(=O)O | inactive: 18.2% | –
4 | CSC(=NS(=O)(=O)c1ccc(N)cc1)NS(=O)(=O)c1cccs1 | inactive: 13.7% | –
5 | C[n+]1cccc(C(=O)O)c1 | inactive: 17.6% | –
6 | COc1ccc(C2c3c(ncn(CCN4CCOCC4)c3=N)Oc3ccc4ccccc4c32)cc1OC (configuration not stated) | inactive: 12.3% | –
7 | O=C(/C=C/c1ccc(O)c(O)c1)O[C@@H]1C[C@](O)(C(=O)O)C[C@@H](O)[C@H]1O | inactive: -1.9% | –
8 | COc1ccc(C(=O)N/C(=C/c2ccco2)C(=O)NCc2ccco2)cc1 | inactive: 13.2% | –
9 | CCCCCCN1C[C@@H](O)[C@H](n2cc(COC(=O)c3ccccc3)nn2)C[C@@H]1c1ccc(Cl)cc1 | inactive: 4.21% | –
10 | CCOC(=O)[C@@H]1[C@H]2COc3ccccc3[C@@H]2N2C(=O)N(c3ccc(Cl)cc3)C(=O)[C@@]12C | inactive: -0.391% | –
11 | O=S(=O)(c1ccc(Cl)cc1)c1snnc1-c1ccccc1 | – | active: 11.6 µM
12 | C[C@@H]1CN([C@H](C)CO)C(=O)CCCn2nncc2CO[C@@H]1CN(C)C(=O)OCc1ccccc1 | inactive: -5.08% | –
13 | CC(=O)C[C@@H](O)CC(=O)[C@H]1OC(=O)CCCCCCc2ccccc21 | inactive: -4.07% | –
14 | CN(C)/C=C1\C=C(c2ccccc2)OC1=O | inactive: 13.5% | –
15 | OCC[C@H]1C[C@H](O)[C@@H](O)[C@]2(OCCc3ccccc32)O1 | inactive: 6.28% | –
16 | O=C(O)C1=C[C@@H](c2ccc3c(c2)OCO3)C[C@@H](OCc2ccc(CO)cc2)O1 | inactive: 7.08% | –
17 | COC(=O)c1ccccc1NC(=O)Cn1c(-c2nonc2N)nc2ccccc21 | – | active: 0.708 µM
18 | CC1(c2ccc(O)cc2)NC(=O)N(c2ccccc2)N1 (configuration not stated) | – | active: 5.8 µM
19 | COc1cccc(O[C@@H]2O[C@@H]3COC(C)(C)O[C@H]3[C@H](O)[C@H]2NC(C)=O)c1 | inactive: 21.4% | –

Row | SMILES | activity, negative = less viability | Potency
20 | COc1ccc(-n2ncc3c(N4CCN(Cc5ccccc5)CC4)ncnc32)cc1 | – | active: 14.6 µM
21 | COc1ccc(/C=C(/NC(=O)c2ccco2)C(=O)NCc2ccco2)cc1 | inactive: 8.36% | –
22 | O=[N+]([O-])c1ccc(O)c(C2CCCCC2)c1 | – | active: 14.6 µM
23 | CNc1c2c(nn1C)CCCC2 | inactive: 9.29% | –
24 | CCN1/C(=C\C(=S)Nc2ccccc2)Sc2ccccc21 | – | active: 14.6 µM
25 | CCN1CCN(Cc2ccc(NC(=O)c3ccc(C)c(NC(=O)c4cccc5[nH]ccc45)c3)cc2C(F)(F)F)CC1 | inactive: -14.5% | –
26 | C=CC[C@@H](CC(=O)N[C@H](CO)Cc1ccccc1)C(=O)NC[C@@H](OC(=O)[C@@H](CC=C)Cc1ccc(F)cc1)c1ccccc1 | inactive: -2.66% | –
27 | Cc1cccc(COCC(CC(C)C)N2CCN(C(=O)c3ccc(C(C)(C)C)cc3)CCC2=O)c1 (configuration not stated) | inactive: 0% | –
28 | O=C(O)C1C2C=CC3(CN(C4CCCC4)C(=O)C13)O2 (configuration not stated) | inactive: -1.65% | –
29 | COc1cccc(/C=N/Nc2ccc(C(=O)O)cc2)c1O | – | active: 18.4 µM
30 | C[C@]12C=CC(=O)C=C1CC[C@@H]1[C@@H]2C(=O)C[C@@]2(C)[C@H]1CC[C@]2(O)C(=O)CO | – | inactive
31 | C=CCC[C@@H](Cc1ccc(F)cc1)C(=O)OC[C@@H](Cc1c[nH]c2ccccc12)NC(=O)[C@@H](CC=C)CC(=O)N[C@@H](CO)Cc1ccccc1 | inactive: -0.749% | –
32 | Cc1ccc(NS(=O)(=O)c2cc(-c3n[nH]c(=O)c4ccccc34)ccc2C)cc1 | – | active: 18.4 µM
33 | COc1cc2nc(N3CCN(C(=O)C4CCCO4)CC3)nc(N)c2cc1OC (configuration not stated) | inactive: -8.97% | –
34 | O=C1NC[C@H](CCCCN2C[C@H](Cc3ccccc3)N(CCC3CCCCC3)C(=O)C2=O)N(Cc2ccccc2)C1=O | inactive: 21.1% | –
35 | C=CC[C@@H](CC(=O)N(CCO)Cc1ccccc1)C(=O)N[C@H](COC(=O)[C@@H](CC=C)CC(=O)OC(C)(C)C)Cc1ccccc1 | inactive: -14% | –
36 | CCOC(=O)/C(=N/Nc1ccc(Br)cc1)N1CC(C)OC(C)C1 (configuration not stated) | inactive: -15% | –
37 | O=C(COc1ccccc1C(=O)c1cnn(-c2ccccc2)c1)Nc1ccccc1 | inactive: -14.5% | –
38 | Cc1ccc(C(=O)C[n+]2cc(-c3ccccc3)n3c2CCCCC3)cc1 | inactive: -24.6% | –

Row | SMILES | activity, negative = less viability | Potency
39 | CC(C)(C)OC(=O)C[C@H]1C/C=C\C[C@@H](CC(=O)NCCO)C(=O)NC[C@@H](c2ccccc2)OC1=O | inactive: 1.54% | –
40 | CC1=NNC(=O)/C1=C\c1cn(-c2ccccc2)nc1-c1ccc(Cl)cc1 | – | active: 7.31 µM
41 | O=C(CCCN1C(=O)/C(=C/c2ccccc2)SC1=S)Nc1ccc(O)cc1 | inactive: -10% | –
42 | Fc1ccc(SCCc2ccccn2)cc1 | inactive: 11.2% | –
43 | O=C(NCCCn1ccnc1)/C(=C/c1cccnc1)NC(=O)c1ccco1 | inactive: 10.1% | –
44 | Cc1cc(N2CCN(Cc3nc(-c4ccc(Cl)cc4)oc3C)CC2)cc(C)n1 | – | active: 20.6 µM
45 | CN1C2CCC1CC(OC(=O)c1c[nH]c3ccccc13)C2 (configuration not stated) | inactive: 1.16% | –
46 | COc1ccc([C@@H]2CC(=O)c3c(O)cc(O)cc3O2)cc1O | inactive: 48.9% | –
47 | CC(=O)OCC(=O)[C@@]1(O)CC[C@H]2[C@@H]3CCC4=CC(=O)CC[C@]4(C)[C@H]3[C@@H](O)C[C@@]21C | inactive: -7.23% | –
48 | COc1ccc(NC(=O)/C(=C/c2cccs2)NC(=O)c2ccco2)cc1 | inactive: 26.6% | –
49 | NC(CCc1ccccc1)c1csc(Nc2nccc(C(F)(F)F)n2)n1 (configuration not stated) | – | active: 16.4 µM
50 | OCC[C@H]1C[C@H](O)[C@@H](O)[C@]2(CCCc3ccccc3O2)O1 | inactive: -7.64% | –
51 | NC(=O)C1=C[C@H](c2csc3ccccc23)C[C@H](OCc2ccc(CO)cc2)O1 | inactive: -12% | –
52 | C/C(N)=C(/C#N)C(=O)CSc1nnc(COc2ccccc2Cl)o1 | inactive: -1.7% | –
53 | Cc1ccc(N2C(=O)N3[C@H]4c5ccccc5OC[C@@H]4[C@@H](c4ccccc4)[C@@]3(C)C2=O)cc1 | inactive: -1.94% | –
54 | c1ccc2c(c1)cnc1ccccc12 | inactive: 3.08% | –
55 | O=[N+]([O-])c1ccc2[nH]cc(S(=O)(=O)N3CCN(c4cccc(Cl)c4)CC3)c2c1 | – | active: 20.6 µM
56 | CC(C)C[C@H]1CN([C@@H](Cc2ccccc2)CN2CCC[C@@H]2CN2C(=O)C(=O)NC[C@@H]2Cc2ccc(O)cc2)C(=O)C(=O)N1CC1CCCCC1 | inactive: 4.36% | –
57 | CCOC(=O)[C@@H]1[C@H]2COc3cc(OC)ccc3[C@@H]2N2C(=O)N(c3ccc(C)cc3)C(=O)[C@]12C | inactive: -0.637% | –
